Laboratory results published in publication PMC6345720.
Results are given in words; binding and its absence hold for the method and conditions named. Binding seen in cells or lysates may run through a third protein. Some binding calls cover weakened binding; strength is not graded here. Tags and fused reporters may be left off the sequences shown.

Experiments:
[1] = target: T1, PLDδ-YFP-HA (35S::PLDδ-YFP-HA) (Arabidopsis thaliana) (UniProt Q9C5Y0); experiment: co-IP; PLD-YFP-HA and RPM1-Myc co-expressed in N. benthamiana leaves; microsomal fractions solubilised in 40 mM Tris-HCl pH 7.5, 150 mM NaCl, 1 mM DTT, 5 mM EDTA, 1% Triton X-100; PLD-YFP-HA precipitated with anti-GFP agarose beads at 4°C for 3 h; RPM1-Myc detected by blot
T1 sequence: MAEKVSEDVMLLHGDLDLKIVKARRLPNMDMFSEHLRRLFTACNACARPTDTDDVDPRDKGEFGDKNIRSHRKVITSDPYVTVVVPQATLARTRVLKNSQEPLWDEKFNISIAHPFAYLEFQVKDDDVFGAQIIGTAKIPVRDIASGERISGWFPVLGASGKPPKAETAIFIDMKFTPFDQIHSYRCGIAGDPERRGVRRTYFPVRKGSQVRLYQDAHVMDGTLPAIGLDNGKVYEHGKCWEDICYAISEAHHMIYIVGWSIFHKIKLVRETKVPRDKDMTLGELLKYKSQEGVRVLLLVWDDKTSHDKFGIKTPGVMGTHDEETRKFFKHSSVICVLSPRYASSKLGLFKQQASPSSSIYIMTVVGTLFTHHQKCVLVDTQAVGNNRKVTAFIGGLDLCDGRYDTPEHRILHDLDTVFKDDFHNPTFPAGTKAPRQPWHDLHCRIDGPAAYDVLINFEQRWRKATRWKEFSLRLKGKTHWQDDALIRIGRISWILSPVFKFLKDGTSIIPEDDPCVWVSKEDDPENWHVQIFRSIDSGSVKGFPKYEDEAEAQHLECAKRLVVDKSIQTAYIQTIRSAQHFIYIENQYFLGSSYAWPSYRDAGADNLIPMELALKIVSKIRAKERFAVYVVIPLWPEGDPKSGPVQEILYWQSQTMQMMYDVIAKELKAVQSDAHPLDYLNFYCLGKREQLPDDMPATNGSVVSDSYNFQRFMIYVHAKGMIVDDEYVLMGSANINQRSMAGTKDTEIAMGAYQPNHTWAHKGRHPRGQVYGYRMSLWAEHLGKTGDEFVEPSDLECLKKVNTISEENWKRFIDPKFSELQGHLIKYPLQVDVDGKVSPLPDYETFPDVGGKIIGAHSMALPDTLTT

[2] = target: T2, PLDα2-YFP-HA (Arabidopsis thaliana) (UniProt Q9SSQ9); experiment: as above
T2 sequence: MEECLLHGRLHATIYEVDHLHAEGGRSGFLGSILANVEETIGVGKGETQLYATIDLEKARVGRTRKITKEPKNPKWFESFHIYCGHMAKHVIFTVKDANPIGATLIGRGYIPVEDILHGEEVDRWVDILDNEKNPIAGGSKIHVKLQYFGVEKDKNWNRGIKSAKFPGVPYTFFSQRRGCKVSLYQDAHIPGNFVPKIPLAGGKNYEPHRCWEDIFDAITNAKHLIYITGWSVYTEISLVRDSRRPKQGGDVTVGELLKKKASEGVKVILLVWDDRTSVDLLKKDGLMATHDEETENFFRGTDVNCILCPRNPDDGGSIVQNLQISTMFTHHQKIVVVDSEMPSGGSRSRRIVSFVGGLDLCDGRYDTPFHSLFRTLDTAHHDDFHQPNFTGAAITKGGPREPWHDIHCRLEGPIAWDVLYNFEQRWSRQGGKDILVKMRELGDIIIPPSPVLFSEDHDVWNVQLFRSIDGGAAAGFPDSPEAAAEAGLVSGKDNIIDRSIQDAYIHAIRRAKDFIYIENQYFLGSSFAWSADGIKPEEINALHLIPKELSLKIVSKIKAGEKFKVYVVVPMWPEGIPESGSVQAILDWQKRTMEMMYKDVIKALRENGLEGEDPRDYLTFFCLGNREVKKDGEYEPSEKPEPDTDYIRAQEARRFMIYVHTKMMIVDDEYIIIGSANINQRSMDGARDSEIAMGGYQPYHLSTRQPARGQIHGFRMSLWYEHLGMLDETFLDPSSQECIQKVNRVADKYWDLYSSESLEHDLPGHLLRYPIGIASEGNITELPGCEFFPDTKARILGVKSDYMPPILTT

B1: RPM1-Myc (35S::RPM1-Myc) (receptor, UniProt Q39214 1-926)
chain: MASATVDFGIGRILSVLENETLLLSGVHGEIDKMKKELLIMKSFLEDTHKHGGNGSTTTTTQLFQTFVANTRDLAYQIEDILDEFGYHIHGYRSCAKIWRAFHFPRYMWARHSIAQKLGMVNVMIQSISDSMKRYYHSENYQAALLPPIDDGDAKWVNNISESSLFFSENSLVGIDAPKGKLIGRLLSPEPQRIVVAVVGMGGSGKTTLSANIFKSQSVRRHFESYAWVTISKSYVIEDVFRTMIKEFYKEADTQIPAELYSLGYRELVEKLVEYLQSKRYIVVLDDVWTTGLWREISIALPDGIYGSRVMMTTRDMNVASFPYGIGSTKHEIELLKEDEAWVLFSNKAFPASLEQCRTQNLEPIARKLVERCQGLPLAIASLGSMMSTKKFESEWKKVYSTLNWELNNNHELKIVRSIMFLSFNDLPYPLKRCFLYCSLFPVNYRMKRKRLIRMWMAQRFVEPIRGVKAEEVADSYLNELVYRNMLQVILWNPFGRPKAFKMHDVIWEIALSVSKLERFCDVYNDDSDGDDAAETMENYGSRHLCIQKEMTPDSIRATNLHSLLVCSSAKHKMELLPSLNLLRALDLEDSSISKLPDCLVTMFNLKYLNLSKTQVKELPKNFHKLVNLETLNTKHSKIEELPLGMWKLKKLRYLITFRRNEGHDSNWNYVLGTRVVPKIWQLKDLQVMDCFNAEDELIKNLGCMTQLTRISLVMVRREHGRDLCDSLNKIKRIRFLSLTSIDEEEPLEIDDLIATASIEKLFLAGKLERVPSWFNTLQNLTYLGLRGSQLQENAILSIQTLPRLVWLSFYNAYMGPRLRFAQGFQNLKILEIVQMKHLTEVVIEDGAMFELQKLYVRACRGLEYVPRGIENLINLQELHLIHVSNQLVERIRGEGSVDRSRVKHIPAIKHYFRTDNGSFYVSLSS
- binding [1]: binds
- binding [2]: binds
